# Assay results reported in PubChem BioAssay AID686979 (National Center for Advancing Translational Sciences (NCATS), 2013).
# The whole screen tested about 420,000 compounds, of which about 50,000 (12%) were called active. Inconclusive means that the source gave no clear call. Such entries were picked first, then a sample of the others. Calls come from the whole dose curve; as a rule, active = well fitted inhibition curve with a large enough effect; inconclusive = small, poorly fitted or top-dose-only effect; inactive = flat fitted curve, though single readings scatter. Potencies of inconclusive entries are left out as doubtful fits.
# Experiment: qHTS for Inhibitors of human tyrosyl-DNA phosphodiesterase 1 (TDP1): qHTS in cells in presence of CPT; note: nearly all actives have a fitted effect of over 55% in size
# Conditions: chicken DT40 Tdp1-/-;hTDP1 cells + 20 nM CPT, ATP luminescence, 48 h; activity change, negative = growth inhibition: at 46.2 µM (top of the series) unless noted
# Procedure, shortened: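 Chicken DT40 Tdp1-/- cells stably complemented with human TDP1 were seeded at 400 cells/well in medium containing 20 nM camptothecin, exposed to pin-transferred compounds, and grown at 37 °C for at least 48 hr. Viability was read as ATP luminescence.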
# % is set by controls: 0 for no effect and ±100 for the full control effect; potency is the fitted concentration of half-maximal effect; tags give direction and shape of the fitted curve.
SMILES,Potency,"activity change, negative = growth inhibition"
O=C(O)c1cccc(-n2c(-c3cnccn3)n[nH]c2=S)c1,inactive,
Cn1c(N)c(C(=O)COC(=O)/C=C/c2ccc(Cl)cc2)c(=O)n(C)c1=O,"inconclusive [inhibitor, single point]",
Cc1ccc(NC2Sc3ccccc3NC2=O)cc1 (stereo not given),"inconclusive [inhibitor, single point]",
COc1ccc(-n2c(O)c(C=NCC(c3ccco3)N3CCCC3)c3ccccc3c2=O)cc1OC (stereo not given),inactive,
COc1cccc(NC(=O)CC(C)S(=O)(=O)c2ccc3c(c2)NC(=O)CO3)c1 (stereo not given),inactive,
COC(=O)CSc1nsc(SCC(=O)OC)c1C#N,inactive,
CCOC(=O)c1ccc2c(c1)nc(SCc1cn3ccsc3n1)n2CC,"inconclusive [inhibitor, single point]",
Cc1ccc(NC(=O)CN2C(=O)C3(SCC(=O)N3c3cccc(Cl)c3)c3ccccc32)cc1C (stereo not given),"inconclusive [inhibitor, single point]",
CCCN1C[C@H](CSC)C[C@@H]2c3cccc4[nH]cc(c34)C[C@H]21,"inconclusive [inhibitor, single point]",
COc1ccc(-c2c(-c3cc(OC)cc(OC)c3)n(C)c3ccc(-c4ccc5cc[nH]c5c4)cc23)cc1,"inconclusive [inhibitor, single point]",
CCCCNC(=O)C(NC(=O)c1cccc(C(F)(F)F)c1)C(=O)c1ccccc1 (stereo not given),inactive,
c1ccc(CN2CC[C@@H](Nc3nccn4ccnc34)C2)cc1,"inconclusive [inhibitor, single point]",
Cc1cccc(C(=O)Nc2nnc(S(=O)(=O)N(C)Cc3ccco3)s2)c1,"inconclusive [inhibitor, single point]",
CCCCN(C(=O)CSc1nnc(Nc2ccc(C)c(C)c2)s1)c1c(N)n(Cc2ccccc2)c(=O)[nH]c1=O,active: 18.4 µM,
CCOC(=O)c1cn(-c2ccccc2CO)c2c(F)c(F)c(F)cc2c1=O,inactive,
Cc1oc(-c2cccc(Cl)c2)nc1CN1CCCC(C(=O)NCc2ccco2)C1 (stereo not given),"inconclusive [inhibitor, single point]",
COc1cc(SC)ccc1C(=O)Nc1ncc(C)s1,"inconclusive [inhibitor, single point]",
COc1ccc(CCNC(=O)CSc2nc(-c3ccc(F)cc3)cc(C(F)(F)F)n2)cc1OC,active: 18.4 µM,
COc1cccc(CN(C)C(=O)C2CCCN(C(=O)c3ccc(Cl)cc3)C2)c1 (stereo not given),active: 20.6 µM,
Cc1ccc(NS(=O)(=O)c2ccc3c(c2)CCCN3C(=O)C2CCC2)cc1Cl,"inconclusive [inhibitor, single point]",
Cc1ccc(OCCC(=O)Nc2ccc(S(=O)(=O)N3CCCC3)cc2)cc1,"inconclusive [inhibitor, single point]",
Cc1ccc(S(=O)(=O)N2CCN(C(=O)CN3C(=O)NC(C)(c4ccc(Cl)cc4)C3=O)CC2)c(C)c1 (stereo not given),active: 23.1 µM,
CCOC(=O)c1ccc(N/C(=N\S(=O)(=O)c2ccc(F)cc2F)c2ccccc2)cc1,,inconclusive: -33.1% [inhibitor]
Cc1nc(-c2ccc(S(=O)(=O)Nc3ccc(S(N)(=O)=O)cc3)cc2)co1,"inconclusive [inhibitor, single point]",
CCc1c(C#N)c(SCCC(=O)Nc2ccc(C)cc2)nc2c1C(=O)CC(C)(C)C2,"inconclusive [inhibitor, single point]",

SMILES,Potency,"activity change, negative = growth inhibition"
O=c1cc(-c2ccccc2)oc2c1CCCC2,"inconclusive [inhibitor, partial curve, poor fit]",
NC(=O)[C@@H]1CCCN1C(=O)c1ccc2nc(Cc3cccc(Cl)c3)oc2c1,inactive,
CCc1c(C)nc(SC(C(=O)O)c2ccccc2)c(C#N)c1C (stereo not given),"inconclusive [inhibitor, single point]",
CCN(CC)C(=O)C(Sc1nnnn1-c1ccc(O)cc1)c1ccccc1 (stereo not given),inactive,
O=C(Cn1nc(CNc2ccc(Cl)cc2)[n+]2c1CCCCC2)c1ccc(Cl)cc1,"inconclusive [inhibitor, partial curve]",
COc1ccc(CNC(=O)CN(Cc2ccccc2)S(=O)(=O)c2ccc(Cl)cc2)cc1,"inconclusive [inhibitor, single point]",
COC(=O)[C@H](C)[C@@H]1C[C@@]1(C)[C@@H](NC(=O)OCc1ccccc1)c1ccccc1,"inconclusive [inhibitor, single point]",
Cc1nc2nncn2c(NCc2ccc(F)cc2)c1C,active: 5.17 µM,
O=C(NCc1cccnc1)Nc1ccc(Cl)cc1Cl,inactive,
CCOC(=O)C[C@H]1c2ccc(C(F)(F)F)cc2S(=O)(=O)N1C(C)C,"inconclusive [inhibitor, single point]",
COCCNc1nc2c(S(=O)(=O)c3ccc(C)c(C)c3)nnn2c2ccc(Cl)cc12,"inconclusive [inhibitor, single point]",
Cc1cc(SCC(=O)NCCC2=CCCCC2)nc2ccccc12,"inconclusive [inhibitor, single point]",
C=CCn1c(=O)c2ccccc2n2c(SC(C)C(=O)Nc3nc(-c4ccccc4)cs3)nnc12 (stereo not given),active: 9.2 µM,
COC(=O)C1=C(C)NC(=O)NC1c1ccccc1Cl (stereo not given),inactive,
COc1ccc(CCC(=O)NCC(=O)OCc2ccccc2)cc1,inactive,
CCc1ccc(NC(=O)COC(=O)/C=C/c2c(C)nn(C3CCS(=O)(=O)C3)c2Cl)cc1 (stereo not given),inactive,
O=C(NCc1ccc(Cl)c(Cl)c1)c1cc(C2CCCCN2C(=O)OCCF)on1 (stereo not given),active: 23.1 µM,
COc1ccc(OC)c(NC(=O)CSc2nc3cccnc3n2C)c1,"inconclusive [inhibitor, single point]",
CCOC(=O)c1csc(NC(=O)c2ccc(S(=O)(=O)N3CCCC3)cc2)n1,inactive,
CCC(Oc1ccccc1)C(=O)Nc1cc(-c2ccccc2OC)nn1-c1ccccc1 (stereo not given),"inconclusive [inhibitor, single point]",
O=C(C1=C[C@H](c2ccccc2)C[C@H](OCCCCO)O1)N1CCN(Cc2ccc3c(c2)OCO3)CC1,"inconclusive [inhibitor, single point]",
O=C(CN(C(=O)c1csnn1)c1cccc2c1CCCC2)NC1CCCC1,inactive,
Cc1onc(-c2c(F)cccc2Cl)c1C(=O)N1CCc2ccccc21,"inconclusive [inhibitor, single point]",
CCOc1ccc(N(CC(=O)NCCOc2ccc(C)cc2)S(=O)(=O)c2ccccc2)cc1,"inconclusive [inhibitor, single point]",
Cc1cccc(C(=O)NC(CC(=O)O)c2ccc(OC3CCCC3)cc2)c1[N+](=O)[O-] (stereo not given),inactive,

SMILES,Potency,"activity change, negative = growth inhibition"
COc1nc(Nc2ccc(O)cc2)nc(OC(C(F)(F)F)C(F)(F)F)n1,,inconclusive: -30.8% [inhibitor]
CCOC(=O)c1c2c(c(=S)n(-c3ccccc3)c1N)CCC2,inactive,
Cc1cc(Cl)nc(-c2ccccc2)n1,inactive,
Cc1nn(C)c(C)c1CN(C(=O)C1CCC(=O)N(C2CCCCCC2)C1)C(C)C (stereo not given),inactive,
O=C(N/N=C/c1cn(-c2ccccc2)nc1-c1ccccc1)c1ccco1,"inconclusive [inhibitor, single point]",
CCOc1cc(CNc2ccc3c(c2)OCCO3)cc(Br)c1OCC,active: 2.59 µM,
CC(C)(C)c1ccc(-c2c(C#N)c(N)nc3c2CCCC3)s1,"inconclusive [inhibitor, single point]",
CN1CCN(C(c2ccccn2)c2cc(Cl)c3cccnc3c2O)CC1 (stereo not given),active: 6.51 µM,
COc1ccc(NC2CCCN(C(=O)c3cccs3)C2)cc1 (stereo not given),inactive,
COc1ccc(OC)c(NC(=O)c2nc3ccccc3s2)c1,inactive,
Cc1cc(C)c2[nH]c3nc(SCC(=O)O)nnc3c2c1,inactive,
COCCN1CCN(C(=O)C2CCC(=O)N(Cc3cccc(C(F)(F)F)c3)C2)CC1 (stereo not given),inactive,
O=C(CCOc1ccccc1)N1CCCC(Nc2ccccc2)C1 (stereo not given),"inconclusive [inhibitor, single point]",
COc1cc(-c2[nH]ncc2CN2CCN(c3cccc(C)n3)CC2)cc(OC)c1OC,"inconclusive [inhibitor, single point]",
COc1ccc2c(c1OC)C(=O)OC2C1c2c(cc3c(c2OC)OCO3)CCN1C (stereo not given),inactive,
CC1(C(=O)NS(=O)(=O)Cc2ccccc2C(F)(F)F)CCN1C(=O)c1ccco1 (stereo not given),inactive,
Cc1ccc(C)c(N2CN(CCC3=CCCCC3)CNC2=S)c1,"inconclusive [inhibitor, single point]",
O=c1[nH]c2cc(F)ccc2c2ccc(F)cc12,"inconclusive [inhibitor, partial curve, poor fit]",
CCN1CCN(S(=O)(=O)c2ccc(Cl)c(C(=O)N(CC)CC(=O)Nc3ccc(OC)cc3)c2)CC1,inactive,
Cc1ccc(Nc2nc(N)nc(CN3CCc4ccccc4C3)n2)cc1,active: 18.4 µM,
COc1cc(OC)cc(C2=Cc3ccccc3C(CC(C)=O)N2c2ccc(-c3cncnc3)cc2)c1 (stereo not given),active: 18.4 µM,
Cc1c(-n2cc(C(=O)c3cc(F)ccc3O)cc(C#N)c2=O)c(=O)n(-c2ccccc2)n1C,inactive,
CN1CCCC1(C)C(=O)NCc1ccc(F)cc1Cl (stereo not given),inactive,
C1CCCCCC(NCCN2CCNCC2)CCCCC1,active: 3.66 µM,
Cc1ccc(S(=O)(=O)N[C@H](C(=O)OCC(=O)NC(=O)Nc2ccc3c(c2)OCCO3)C(C)C)cc1,"inconclusive [inhibitor, partial curve]",
